Source: PubChem BioAssay AID686979 (National Center for Advancing Translational Sciences (NCATS), 2013)
Several values for one entry are separate records, joined by “and”; a condition that tells them apart may be missing. Equal entries are not always repeated. The whole screen tested about 420,000 compounds, of which about 50,000 (12%) were called active. The shares of active, inactive and inconclusive entries below differ from those in the screen. The call rests on the fitted dose curve; in most records, active means well fitted inhibition curve with a large enough effect; inconclusive means small, poorly fitted or top-dose-only effect; inactive means flat fitted curve, though single readings scatter. Potencies beside an inconclusive call are fits to weak or partial responses and may not hold up.

assay: qHTS for Inhibitors of human tyrosyl-DNA phosphodiesterase 1 (TDP1): qHTS in cells in presence of CPT; conditions: chicken DT40 Tdp1-/-;hTDP1 cells + 20 nM CPT, ATP luminescence, 48 h; activity change, negative = growth inhibition: at 46.2 µM (top of the series) unless noted; further: nearly all actives have a fitted effect of over 55% in size
In short: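 Chicken DT40 Tdp1-/- cells complemented with human TDP1, 400 cells/well, exposed to compounds plus 20 nM camptothecin for at least 48 h at 37 C; viability read as ATP content by CellTiter-Glo luminescence.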
On the % scale 0 is the no-effect control and ±100 the full control effect; potency means the concentration at half of the fitted maximal effect; tags describe the fitted curve by direction and shape.

| Structure (SMILES) | Potency | activity change, negative = growth inhibition |
| --- | --- | --- |
| O=C(Nc1ccc(OC(F)(F)F)cc1)Nc1cccnc1 | inconclusive: 13 µM [inhibitor, partial curve, poor fit] | – |
| CCN(C(=O)c1cnc2ccc(C)cn2c1=O)c1ccccc1 | – | inactive: -6.41% |
| COc1ccccc1OCC(=O)Nc1sc2c(c1C(=O)NCC1CCCO1)CCC2 (centres undefined) | inconclusive: 23.1 µM [inhibitor, single point] | – |
| O=C(C1CCC1)N1CCc2cc(S(=O)(=O)NCC3COc4ccccc4O3)ccc21 (centres undefined) | inconclusive: 29.1 µM [inhibitor, single point] | – |
| CN1/C(=C/C=N/NC(=O)c2ccc([N+](=O)[O-])cc2)C(C)(C)c2ccccc21 | inconclusive: 29.1 µM [inhibitor, single point] | – |
| Cc1cc(NC(=O)C(C)(C)C)no1 | – | inactive: 24.5% |
| COc1ccc(NC(=O)NCc2ccc3c(c2)OCO3)cc1OC | – | inactive: -17.1% |
| Cc1ccccc1Nc1nc(-c2cccnc2)nc2ccccc12 | inconclusive: 18.4 µM [inhibitor, single point] | – |
| O=C(Nc1ccc(Cl)cc1)C1CCCN(C2=NS(=O)(=O)c3ccccc32)C1 (centres undefined) | inconclusive: 11.6 µM [inhibitor, single point] | – |
| COC(=O)C1=C(C)NC(C)=C(C(=O)OC(C)C)C1c1cccc2nonc12 (centres undefined) | inconclusive: 29.9 µM [inhibitor, single point] and inconclusive: 16.4 µM [inhibitor, single point] | – |
| O=C(Cn1nc(-c2ccccc2)ccc1=O)NCc1ccc2c(c1)OCO2 | – | inactive: -0.457% |
| O=C(/C=C/c1ccccc1)NC(=S)Nc1ccc(N2CCOCC2)cc1 | inconclusive: 25.9 µM [inhibitor, partial curve, poor fit] | – |
| CCc1ccc(NC(=O)C2CCN(c3nn4c(=O)cc(C)nc4s3)CC2)cc1 | inconclusive: 23.1 µM [inhibitor, single point] | – |
| Clc1ccc(-c2noc3ncnc(NCCc4ccccc4)c23)cc1 | inconclusive: 29.1 µM [inhibitor, single point] | – |
| O=C1OC(OC(=O)c2cccnc2Nc2cccc(C(F)(F)F)c2)c2ccccc21 (centres undefined) | – | inactive: -10% |
| Cc1ccc(SC(C)C(=O)Nc2ccc(S(=O)(=O)N3CCOCC3)cc2)cc1 (centres undefined) | inconclusive: 23.1 µM [inhibitor, single point] | – |
| FC(F)(F)c1cc(-c2ccccc2)nc(N2CCCCC2)n1 | – | inactive: -92.5% |
| O=C(c1ccc(Cl)c([N+](=O)[O-])c1)N1CCN(c2ccccc2)CC1 | inconclusive: 29.1 µM [inhibitor, single point] | – |
| Nc1c(C(=O)N/N=C/c2ccccc2Cl)oc2nc(-c3ccccc3)cc(-c3ccco3)c12 | inconclusive: 20.6 µM [inhibitor, partial curve] | – |
